# Measured values published in PubChem BioAssay (NCATS).
# This is one part of the list. These are further read-outs of the screen, such as a control signal, another cell line or another target. No call is given for them. Most of these compounds were active or inconclusive in the main read-out, so they are no random draw. Words in brackets tell the shape of the fitted curve; partial curves, single points and poor fits give uncertain potencies.
# Experiment: qHTS Assay for Lipid Storage Modulators (AID 1519)
# Conditions: Drosophila S3 cells, BODIPY lipid droplet/cell ratio, laser cytometry, cells loaded with oleic acid
# Summary of the method: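 Cells seeded at 5,000 per well were treated with compounds over a concentration series and loaded with oleic acid (400 uM, as added). Lipid droplet fluorescence (488 nm excitation, 500-530 nm channel) was read by laser-scanning cytometry and normalized to 20 uM Triacsin C.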
# [1] = measured here: cell count channel max response
# [2] = measured here: cell number channel AC50
# [3] = measured here: lipid (BODIPY) channel AC50
# [4] = measured here: lipid channel max response
# Tags give direction and shape of the fitted curve.
SMILES,max response [1],AC50 [2],AC50 [3],max response [4]
COc1cccc(Cn2c(=O)c(-c3cccs3)nc3cnc(OC)nc32)c1,21.7%,"0.708 µM [rising, full curve, poor fit]","0.631 µM [rising, full curve, poor fit]",26.7%
CCCCCC(=O)O[C@@]1(C(C)=O)CCC2C3CCC4=CC(=O)CC[C@@]4(C)C3CC[C@]21C (some centres not stated),32.9%,"31.6 µM [rising, single point]","39.8 µM [rising, single point]",56.4%
O=c1c(-c2cccc(Cl)c2)nc2cncnc2n1-c1ccccc1,35.8%,"1.78 µM [rising, full curve]","1.12 µM [rising, full curve, poor fit]",39.1%
Clc1ccccc1-c1nccc(NCc2ccccc2)n1,4.82%,"4.47 µM [rising, single point]","3.98 µM [rising, partial curve]",7.67%
Cc1noc(C)c1-c1ccc2ncnc(NCc3cccs3)c2c1,6.59%,"3.55 µM [rising, partial curve]","4.47 µM [rising, partial curve]",3.19%
CC(=O)Nc1ccc(-c2nc3ccc(Cl)cc3[nH]2)cc1,106%,"0.891 µM [rising, full curve]","0.708 µM [rising, full curve]",128%
COc1ncc2nc(CCc3ccccc3)c(=O)n(C)c2n1,20%,"0.1 µM [rising, full curve, poor fit]","0.1 µM [rising, full curve]",33%
CN(C)c1ncc2nc(-c3ccccc3)c(=O)n(C3CC3)c2n1,21.3%,"1.58 µM [rising, partial curve]","0.708 µM [rising, full curve, poor fit]",27.8%
COc1ccc(Oc2ncc3nc(-c4ccccc4)c(=O)n(Cc4cccs4)c3n2)cc1,23.6%,"1.78 µM [rising, partial curve]","0.0562 µM [rising, full curve, poor fit]",28.1%
Cc1noc(C)c1-c1nccc(NC2CC2)n1,28.1%,"0.355 µM [rising, full curve]","0.398 µM [rising, full curve]",33.7%
Nc1nc2c(ncn2C2CC(O)C(CO)O2)c(=O)[nH]1 (configuration not stated),-34.4%,"25.1 µM [falling, single point]","31.6 µM [falling, single point]",-42.8%
COc1cccc(Cn2c(=O)c(-c3cccs3)nc3cnc(N4CCN(C)CC4)nc32)c1,25.5%,"0.794 µM [rising, full curve, poor fit]","0.708 µM [rising, partial curve, poor fit]",-1.21%
COc1ccc(CNc2cc(-c3ccccc3C)ncn2)c(OC)c1,20.6%,"1.58 µM [rising, full curve, poor fit]","1.41 µM [rising, full curve, poor fit]",29.8%
COc1cc([C@@H]2Oc3cc([C@H]4Oc5cc(O)cc(O)c5C(=O)[C@H]4O)ccc3O[C@H]2CO)ccc1O,65.6%,"14.1 µM [rising, partial curve, poor fit]","14.1 µM [rising, partial curve, poor fit]",97.1%
CCOc1ccccc1O[C@@H](c1ccccc1)[C@@H]1CNCCO1,67.6%,"15.8 µM [rising, partial curve, poor fit]","5.01 µM [rising, full curve]",90.8%
O=[N+]([O-])c1ccc2cn[nH]c2c1,35.2%,"15.8 µM [rising, partial curve, poor fit]","25.1 µM [rising, partial curve, poor fit]",43.2%
COc1cccc(-c2nccc(NCc3cccnc3)n2)c1,20.8%,"0.355 µM [rising, full curve, poor fit]","0.501 µM [rising, full curve, poor fit]",23.2%
CN(C)c1ccc(-c2nc(Nc3ccncc3)c3ccccc3n2)cc1,-69.5%,"20 µM [falling, partial curve]","14.1 µM [falling, partial curve]",-89.5%
